Experimental data reported in the supplement of paper PMC3334620.
In all, about 33,000 sequences were measured (“E-score (-0.5 to 0.5)”: median about -0.043, highest 2% from about 0.37 on). The list shows a part of the results.

What follows are sequences tested against T1, Upc2 (UniProt Q12151) (assay: PBM E-score (8-mer binding enrichment) (E-score (-0.5 to 0.5)); higher = stronger / more preferred TF binding; most listed sequences are background and not binding sites). Details: protein concentration: 200 nM; construct: GST-full length.
T1 sequence: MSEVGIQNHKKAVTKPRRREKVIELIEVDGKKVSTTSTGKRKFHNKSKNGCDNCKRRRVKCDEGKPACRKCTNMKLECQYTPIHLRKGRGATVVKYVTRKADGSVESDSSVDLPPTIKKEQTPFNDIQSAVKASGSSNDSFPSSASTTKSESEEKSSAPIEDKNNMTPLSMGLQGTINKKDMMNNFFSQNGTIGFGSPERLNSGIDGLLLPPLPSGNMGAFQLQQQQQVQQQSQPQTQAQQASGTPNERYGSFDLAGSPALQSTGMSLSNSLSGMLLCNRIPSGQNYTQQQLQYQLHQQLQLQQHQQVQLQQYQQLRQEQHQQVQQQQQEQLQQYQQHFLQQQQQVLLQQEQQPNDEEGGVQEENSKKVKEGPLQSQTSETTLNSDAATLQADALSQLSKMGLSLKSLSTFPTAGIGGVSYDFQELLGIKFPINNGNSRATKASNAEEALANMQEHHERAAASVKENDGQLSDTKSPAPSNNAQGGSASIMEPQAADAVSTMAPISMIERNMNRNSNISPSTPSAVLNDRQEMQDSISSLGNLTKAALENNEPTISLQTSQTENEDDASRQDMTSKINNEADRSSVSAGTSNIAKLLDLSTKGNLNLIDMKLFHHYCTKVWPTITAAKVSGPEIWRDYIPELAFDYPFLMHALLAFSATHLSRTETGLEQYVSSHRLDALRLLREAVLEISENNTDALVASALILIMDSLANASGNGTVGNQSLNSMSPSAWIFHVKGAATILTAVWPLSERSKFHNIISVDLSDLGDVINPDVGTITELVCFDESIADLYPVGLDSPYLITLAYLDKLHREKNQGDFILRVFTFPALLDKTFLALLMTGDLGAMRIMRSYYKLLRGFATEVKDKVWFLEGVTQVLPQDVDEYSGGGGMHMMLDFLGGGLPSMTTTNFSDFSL
In short: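 For each ungapped eight-base word taken together with its reverse complement, the Universal PBM Analysis Suite assigned an E-score. Binding data came from GST-tagged yeast transcription factors, applied at about 100-200 nM, on universal all-10-mer Agilent arrays made double-stranded by primer extension. Fluorescent anti-GST marked bound protein, and scans were normalised with masliner.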

Row | Sequence | PBM E-score
1 | TTAGGAAA | -0.175
2 | CTAGAAGA | -0.129
3 | AAGCTCCA | -0.175
4 | ACCGGCCC | 0.0253
5 | GATCCGGA | -0.0662
6 | ATAGCATC | -0.062
7 | AATTTCGC | 0.0265
8 | ATACGGCG | 0.43
9 | ATATTTAG | -0.0819
10 | CCGTACGA | 0.443
11 | CCGGCCGC | -0.28
12 | CCCACGTA | 0.0707
13 | AGTCATGC | -0.00618
14 | GAAAATCA | 0.0813
15 | CAGGACAA | 0.111
16 | ACAGTGTC | -0.0162
17 | TGTCAAAA | -0.0976
18 | AATTGTAT | -0.201
19 | ATTTTGGA | -0.0729
20 | CACTTCCC | -0.244
21 | AAAAAAGG | -0.156
22 | CTCTAGGA | -0.337
23 | CTGAAATC | -0.116
24 | CTTCACCA | -0.333
25 | ACACTCAG | -0.142

Row | Sequence | PBM E-score
26 | AGGAAATA | 0.103
27 | AATTCTAT | -0.0257
28 | CCTTTGCG | 0.0792
29 | ACTGAATC | -0.057
30 | GAGTCGTA | 0.43
31 | GGCCCGTA | 0.334
32 | GTTGTGTA | 0.227
33 | AGCCCTGA | -0.126
34 | AGGAATCA | -0.107
35 | AGTACTGC | 0.0497
36 | ATGTGCTG | -0.0785
37 | GTCTGTGA | -0.117
38 | CCAATCAC | -0.0942
39 | TCTAACAA | -0.19
40 | TCCCGGCA | -0.112
41 | CTTGTATA | -0.0603
42 | CCACCCCC | -0.243
43 | CAAGAAAG | -0.0965
44 | AGGAACCA | -0.0762
45 | AGGGTAAC | 0.0675
46 | CGATGAGA | 0.0841
47 | ATTAAATA | 0.0191
48 | ATACAGGC | -0.0717
49 | CCTGCAAC | -0.074
50 | ATTATCAG | -0.179

Row | Sequence | PBM E-score
51 | AGATGTAC | 0.0534
52 | ACCAAGGC | -0.129
53 | CAAACCGG | -0.0596
54 | CGCAAACG | 0.412
55 | CGGCGCTA | -0.119
56 | GCAGATGA | -0.188
57 | CCTATGTA | -0.0105
58 | AGCAGGTA | -0.234
59 | GTATAGAC | 0.347
60 | ACGAATCT | 0.302
61 | GCCACAAA | 0.119
62 | CAGACCGA | -0.016
63 | CTTGATCA | -0.14
64 | CGATTCAA | 0.105
65 | ATCCGGGA | -0.161
66 | GCTCTGAA | -0.0127
67 | ATAGTCAC | 0.0288
68 | AGTGTCCG | -0.00176
69 | AGGATATC | -0.0779
70 | AAGGTCCC | -0.101
71 | ACGGTAAC | 0.222
72 | ACCAGGTC | -0.0565
73 | AGACGAAC | 0.29
74 | CTCTACAC | -0.0552
75 | ATCACACC | -0.0677

Row | Sequence | PBM E-score
76 | CATGTGGA | -0.222
77 | GGGCTCAC | -0.161
78 | ATGCACAG | -0.142
79 | AAAACAGG | -0.221
80 | CAGTCAAC | -0.0955
81 | CAGTTTTC | 0.0824
82 | AGCCTGAG | -0.0748
83 | AATGTCAA | -0.153
84 | AGACAACC | -0.115
85 | GGTCGGAA | 0.0431
86 | AGGACGTA | 0.0024
87 | ACAGGTTC | -0.0233
88 | CGATACCG | -0.0096
89 | AAGTAGGA | -0.0916
90 | CCCATCGA | -0.0519
91 | GTAAGTGA | 0.161
92 | CGATATGA | 0.0557
93 | ACTTGCTA | -0.177
94 | CATTAAGA | -0.00609
95 | ACATAAAG | -0.0136
96 | AGCAGCCC | -0.161
97 | GGGCTCTA | 0.0012
98 | TATGCAGA | 0.0205
99 | AATTACTA | 0.0237
100 | CATATTAC | -0.0835

Row | Sequence | PBM E-score
101 | AATTGCTA | -0.0387
102 | CTCCTCCC | -0.18
103 | ACCCCCGT | -0.0332
104 | CCTTACGC | 0.193
105 | ATGAGTCG | 0.0524
106 | GACAGCTA | -0.126
107 | ATTCTGGG | -0.218
108 | CCCGCGGA | -0.25
109 | AAACCAAG | -0.0232
110 | CATACTCC | -0.182
111 | AGTTGCTG | 0.0425
112 | AAGATACG | 0.349
113 | CGCATAAG | 0.226
114 | GCTGAAAC | 0.0487
115 | AATGCTGG | 0.022
116 | AGACTCGC | -0.0548
117 | ACGGGGCA | 0.0932
118 | CGTGCTAC | -0.175
119 | ACCTGGTC | -0.0694
120 | CGTTGTTC | 0.0493
121 | CAAGTAAA | 0.0181
122 | CTGGTAGA | -0.121
123 | CCACACGC | -0.059
124 | GACCACGC | -0.0484
125 | TCTCGCCA | 0.024

Row | Sequence | PBM E-score
126 | ATCTGCCG | -0.0104
127 | CGGGGTAA | -0.0185
128 | CATTCGGA | 0.153
129 | CCATCCAA | -0.229
130 | ACAATTTC | 0.0419
131 | GACCAGTA | -0.0242
132 | CCAACTTC | 0.0439
133 | ACCCCCAG | -0.101
134 | GTGAATTA | -0.165
135 | GCTTCCGA | 0.0593
136 | CTCTGTAA | -0.0575
137 | ATATGGTG | 0.0542
138 | CGTTGAAC | 0.222
139 | GGGTGGTA | 0.0636
140 | AGCGATAA | 0.0894
141 | ACAGGCCT | -0.206
142 | CGTAACAC | 0.24
143 | CTTAGAGC | -0.0646
144 | AGCTTCCA | -0.211
145 | ACAGAGGT | -0.0934
146 | AGAGGCAA | -0.211
147 | GAGCAATC | -0.00409
148 | GGAGGCCA | -0.322
149 | ACCTTCTA | -0.0736
150 | GCCCCATA | -0.0711

Row | Sequence | PBM E-score
151 | ACACGTAC | 0.268
152 | CAACGGTC | 0.0501
153 | AGAGGCGA | -0.213
154 | CACCTACC | -0.148
155 | CAGAAAAA | -0.0281
156 | CGGGTTTA | 0.16
157 | AGCGGGGA | -0.225
158 | ACACCGCT | 0.0197
159 | CATTCTAG | -0.28
160 | ATCTCGAG | -0.101
161 | GGGCTAAA | -0.0166
162 | GCTAGGAA | -0.253
163 | CCTACGCG | 0.0173
164 | AGTGCTCG | 0.181
165 | CCAACAGA | -0.111
166 | CACAGAGG | -0.344
167 | GGACCTAC | 0.0699
168 | ACACTTCG | 0.103
169 | CCTGGCCG | -0.147
170 | AAATTTCT | 0.0462
171 | CCTATGCA | -0.216
172 | CTCGTGAC | 0.0385
